± gives the standard deviation of the averaged measurements. This is one part of the list.

The experiment relates to PfAP2-LT AP2 domain (GST-tagged). Nature of the experiment: gcPBM binding intensity (ln(normalized median fluorescence intensity)); higher = stronger DNA binding. In a few lines:
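In this array assay, P. falciparum DNA-binding domains with a GST tag, expressed in E. coli, were applied for 1 h to primer-extended double-stranded 36-bp intergenic genomic probes and negative controls on an Agilent 4 × 180k array. Bound protein was visualised with Alexa488 anti-GST antibody at 488 nm. Binding intensity is the highest Masliner-normalised natural-log median intensity across replicate spots of either probe orientation.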
In the case of “ATTAACTATCATAACACACACAGTAGACATATTTTT [CACACA_site1822]”, the “gcPBM binding intensity (ln)” value was 9.35 ± 0.29.

Take “AAATCATTTAAGAACACACAAATATTTCCATTAAAT [CACACA_site6808]”: the “gcPBM binding intensity (ln)” value was found to be 8.72 ± 0.51. “ATGCAAAGTTTATAAAGTACATAAGTCAAAATAAAA [XGTACX_site1441]”: the “gcPBM binding intensity (ln)” value was found to be 8.85 ± 0.46. Regarding “CTTTTCTCCCTCCATAGTACAATTATAAAAATATAT [XGTACX_site3090]”, the “gcPBM binding intensity (ln)” value worked out at 8.53 ± 0.36. The value for “AAGATAATATTTTCTTGTACGCATGCACATACAAAT [XGTACX_site7181]” was 8.88 ± 0.31. Take “ATATAATATTTATATGCACACTTTTCTATATATAAG [CACACA_site6100]”: the “gcPBM binding intensity (ln)” value was determined as 8.81 ± 0.33. “TAAAATATTATTTATTTACACACCAATCTTCTTTTC [CACACA_site9320]”: the “gcPBM binding intensity (ln)” value worked out at 8.73 ± 0.47. Regarding “TCGTATTTAAAATGTAGTACATAATTTGAAAAATAA [XGTACX_site5832]”, the “gcPBM binding intensity (ln)” value stood at 8.43 ± 0.43. For “TAATGGTTATCACTAACATGCAGTAATATTATATAG [TGCATGCA_site176]”, the “gcPBM binding intensity (ln)” value is 8.64 ± 0.36. Consider “TTTTTTCTTTTTTTTTGTACATATAATATTTATGTT [XGTACX_site302]”, for which the “gcPBM binding intensity (ln)” value amounted to 8.76 ± 0.46. For the sequence “ATATATATATGTATATGTACATATATATGGTAACTC [XGTACX_site681]”, the “gcPBM binding intensity (ln)” value was determined as 9.12 ± 0.4.

For the sequence “AAAAGAAAAAAAAAAAAAAAAAAAATTAAAATATAA [CACACA_negctrl_site17]”, the “gcPBM binding intensity (ln)” value is 8.19 ± 0.69.

“AAAAAAAAAAAACACACACACAAATACAAATGGTAA [CACACA_site1720]”: the “gcPBM binding intensity (ln)” value is 9.92 ± 0.42.

For “AATACATATCAAAGCTGTACAAAGTAAATTTTACTT [XGTACX_site3525]”, the “gcPBM binding intensity (ln)” value came to 8.83 ± 0.44. On to “AAGTTATTGATATATACACACAAATATAAATAATAT [CACACA_site6695]”, for which the “gcPBM binding intensity (ln)” value amounted to 9.04 ± 0.42. The value for “TTCAATAGGTATAATTGTACTTAATAATATATTGTT [XGTACX_site8363]” was 8.61 ± 0.54; that for TACTATTATAAATATGTGCACTTCAATAATATACTA was 8.77 ± 0.43; that for “CTTAGGTTAAAAGTGTGTACATAAAAACATATATAA [XGTACX_site2213]” was 8.99 ± 0.46. As to “ATAAGAAAAAGACACACACACAAAAAAAAAAAAAAA [CACACA_site2828]”, the “gcPBM binding intensity (ln)” value is 9.26 ± 0.37. “TAAATAAATTATTTTCGTACTTATTTATTTTAATTA [XGTACX_site283]”: the “gcPBM binding intensity (ln)” value was found to be 8.55 ± 0.45. For the sequence “TTAAAGTAGAGAAAATGTACATTTTATTAACACAAT [XGTACX_site6369]”, the “gcPBM binding intensity (ln)” value worked out at 8.86 ± 0.5. The value for “AAATAAAAAACAGTGGCACACATTATGTATCCACCT [CACACA_site3756]” was 8.98 ± 0.49; that for “AAAAAAAAAATATACACACACATATAAATATAAATA [CACACA_site7574]” was 9.34 ± 0.42; that for “ATACATTCAATGAAATGTACGTTTATTTACAGAAGA [XGTACX_site2999]” was 8.67 ± 0.41.

Regarding “TACAGATACAGATACACACACACACCGAAATAAATA [CACACA_site4865]”, the “gcPBM binding intensity (ln)” value came out at 10.2 ± 0.43. Take “CTTTAAGTTATATGAAGTACAATTTAAAAAAATGAA [XGTACX_site358]”: the “gcPBM binding intensity (ln)” value was found to be 8.37 ± 0.4. The value for “TAAATTCCTACATACGCATGTACATTAAAATTTTAA [TGCATGCA_site215]” was 8.87 ± 0.36; that for “AAAATAAAAAGAAAAAGAAAAAAGGGGGGGTAGGGG [CACACA_negctrl_site1048]” was 9.88 ± 0.11.

In the case of “TGTCATATTATAAATTGTACAAATAGTATAATTATT [XGTACX_site581]”, the “gcPBM binding intensity (ln)” value stood at 8.68 ± 0.4. “ATTTTATCTTTAAACTGTACGTATTAATATGTAGAA [XGTACX_site3077]”: the “gcPBM binding intensity (ln)” value is 8.55 ± 0.38. Consider “AGTATACATATATATACACACATATATATATATATA [CACACA_site300]”, for which the “gcPBM binding intensity (ln)” value came to 9.83 ± 0.34. Regarding “ATAAAAATATTATAAGCACACATATATATATATATA [CACACA_site8781]”, the “gcPBM binding intensity (ln)” value worked out at 9.59 ± 0.3. Turning to “TGTGTATTTATAAATACACACCAAATGTTAATATAT [CACACA_site6904]”, the “gcPBM binding intensity (ln)” value stood at 8.87 ± 0.31.

On to “GTAAAATGATATAAATGTACATAATATATATATGTC [XGTACX_site4049]”, for which the “gcPBM binding intensity (ln)” value was determined as 8.99 ± 0.45. Regarding “AATTTTTTTTTTAGACGTACAAGAAAAAACAAAAAA [XGTACX_site4990]”, the “gcPBM binding intensity (ln)” value amounted to 8.41 ± 0.4. The value for “TATATGAAGTACACAATACACACTAATTATATATAA [CACACA_site2608]” was 9.02 ± 0.4; that for “AACTATAAAAATTTTACACACTGTTTTTAAATAATG [CACACA_site5928]” was 8.72 ± 0.42; that for “TTATGCCTTTAATATACACACTAATATTTTTTTGGC [CACACA_site5171]” was 8.79 ± 0.42. In the case of “TATGAAATTATAATTACACACAGGAAAATAAAATGT [CACACA_site1517]”, the “gcPBM binding intensity (ln)” value is 9.09 ± 0.4.

For “ATATAATAATAAGGCACACAAATTAAAATATAAAAA [CACACA_site3710]”, the “gcPBM binding intensity (ln)” value was 8.93 ± 0.52. The result for “TTATGTTCTTTAAAACCACACACCCCCCAACCCCCC [CACACA_site8742]” reads 9.88 ± 0.23. The result for “AATGTTTTATTTTGAAGTACATTTAAGAATTTTTTA [XGTACX_site7814]” reads 8.27 ± 0.56.

On to “TATATATGCATATACATACACACATAACACATACGT [CACACA_site3833]”, for which the “gcPBM binding intensity (ln)” value is 9.27 ± 0.33. The value for “ATATAGATGCATAATACACACATCAGATAATTAACC [CACACA_site6871]” was 9.25 ± 0.34.
